# Measured values published in PubChem BioAssay (Tox21).
# Values joined by “and” are separate entries in the source; they are usually repeats but may differ in a detail not shown here. Equal entries are not always repeated. The shares of active, inactive and inconclusive entries below differ from those in the screen. Potencies beside an inconclusive call are fits to weak or partial responses and may not hold up. Some structures have more than one record in an assay (separate samples or runs), and their calls can disagree. Active and inactive are the calls of the source. Calls follow the shape of the dose curve; as a rule, active = well fitted curve in the direction sought with a large enough effect in the repeat runs; inconclusive = weak or mixed curves; inactive = no such curve, though single readings can be large; an effect the other way counts as inactive or inconclusive.
# Test: qHTS RealTime-Glo MT Cell Viability Assay in HepG2 cells - 16 hour (AID 1224885)
# Conditions: RealTime-Glo luminescence; series mostly up to 76.8 µM
# Summary of the method: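 qHTS, HepG2, 600 cells/well, RealTime-Glo (NanoLuc + prosubstrate) added with cells; 5 h preincubation; DMSO compound addition; 37 C; luminescence at 0/8/16/24/32/40 h.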
# Also: nearly all actives have a fitted effect of over 50% in size.
# Potency is read from the fitted curve at half-maximal effect; tags tell the direction and shape of the fitted curve.
row,SMILES,Potency
1,O=C1NCCN1CCN1CCC(c2cn(-c3ccc(F)cc3)c3ccc(Cl)cc23)CC1,active: 23.9 µM
2,Nc1c2ccccc2nc2ccccc12,"inconclusive: 12.1 µM [cytotoxic, partial curve] and inconclusive: 5.35 µM [cytotoxic, full curve]"
3,CN1CCN(C2Cc3ccccc3Sc3ccc(Cl)cc32)CC1 (stereo unspecified),"inconclusive: 23.9 µM [cytotoxic, partial curve]"
4,C=CC(=O)OCCCCCCOC(=O)C=C,"inconclusive: 44.2 µM [cytotoxic, partial curve, poor fit] and inconclusive: 19.5 µM [cytotoxic, partial curve]"
5,Oc1c(Cl)cc(Cl)cc1Sc1cc(Cl)cc(Cl)c1O,"inconclusive: 39 µM [cytotoxic, partial curve, poor fit]"
6,CN(C)[C@@H](CCOc1cccc2ccccc12)c1ccccc1,"inconclusive: 23.9 µM [cytotoxic, single point]"
7,Cc1ccc2c(n1)Oc1ccc(C(C)C(=O)OCC(=O)N(C)C)cc1C2 (stereo unspecified),inactive
8,CCCC(C(=O)OCCN(CC)CC)(c1ccccc1)c1ccccc1,"inconclusive: 26.8 µM [cytotoxic, partial curve, poor fit]"
9,O=C1OC2(c3ccccc31)c1cc(I)c(O)c(I)c1Oc1c2cc(I)c(O)c1I,"inconclusive: 26.5 µM [cytotoxic, partial curve] and inconclusive: 23.9 µM [cytotoxic, single point]"
10,CCCCC(CC)COP(=O)(O)OCC(CC)CCCC (stereo unspecified),"inconclusive: 61.6 µM [cytotoxic, partial curve, poor fit]"
11,O=C(Cl)c1cc(C(=O)Cl)cc(C(=O)Cl)c1,"inconclusive: 54.9 µM [cytotoxic, single point]"
12,c1ccc2sc(SSN3CCOCC3)nc2c1,"inconclusive: 54.8 µM [cytotoxic, single point]"
13,C=C[C@](C)(O)CC[C@@H]1[C@@]2(C)CCCC(C)(C)[C@@H]2CC[C@@]1(C)O,active: 49 µM

# Test: qHTS RealTime-Glo MT Cell Viability Assay in HEK293 cells - 24 hour (AID 1224886)
# Conditions: RealTime-Glo luminescence; series mostly up to 76.8 µM
# Summary of the method: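 Assay medium contained NanoLuc luciferase plus cell-permeant prosubstrate, added with HEK293 cells at 600 cells/well. After 5 h at 37 C/5% CO2 compounds were added; plates stayed at 37 C for 40 h with serial luminescence reads.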
row,SMILES,Potency
1,OCc1c[nH]c2ccccc12,"inconclusive: 5.49 µM [rising, full curve]"
2,CC(Cc1cccc(C(F)(F)F)c1)NCCOC(=O)c1ccccc1 (stereo unspecified),"inconclusive: 26.8 µM [cytotoxic, single point]"
3,CCCC1O[C@@H]2C[C@H]3[C@@H]4CCC5=CC(=O)C=C[C@]5(C)[C@H]4[C@@H](O)C[C@]3(C)[C@]2(C(=O)CO)O1 (stereo partly specified),"inconclusive: 24.6 µM [cytotoxic, partial curve] and inconclusive: 43.6 µM [cytotoxic, partial curve]"
4,C=CC(=O)OCC(CO)(COC(=O)C=C)COC(=O)C=C,"active: 4.91 µM and inconclusive: 12.3 µM [cytotoxic, full curve, poor fit]"
5,O=Cc1cc(O)ccc1Br,"inconclusive: 15.7 µM [cytotoxic, partial curve]"
6,Nc1c2ccccc2nc2ccccc12,active: 7.66 µM and active: 21.3 µM
7,CNCCCN1c2ccccc2CCc2ccccc21,"inconclusive: 26.8 µM [cytotoxic, single point]"
8,CN1CCN(C2Cc3ccccc3Sc3ccc(Cl)cc32)CC1 (stereo unspecified),"inconclusive: 23.9 µM [cytotoxic, partial curve]"
9,C=CC(=O)OCCCCCCOC(=O)C=C,"inconclusive: 49.6 µM [cytotoxic, single point]"
10,Oc1c(Cl)cc(Cl)cc1Sc1cc(Cl)cc(Cl)c1O,"inconclusive: 25 µM [cytotoxic, full curve] and inconclusive: 19.5 µM [cytotoxic, full curve] and inconclusive: 26.8 µM [cytotoxic, single point]"
11,CN(C)[C@@H](CCOc1cccc2ccccc12)c1ccccc1,"inconclusive: 26.8 µM [cytotoxic, single point]"
12,Cc1ccc2c(n1)Oc1ccc(C(C)C(=O)OCC(=O)N(C)C)cc1C2 (stereo unspecified),"inconclusive: 21.3 µM [cytotoxic, partial curve, poor fit]"
13,CC(COc1ccccc1)N(CCCl)Cc1ccccc1 (stereo unspecified),"inconclusive: 21.3 µM [cytotoxic, partial curve]"
14,CCCC(C(=O)OCCN(CC)CC)(c1ccccc1)c1ccccc1,active: 21.3 µM
15,Cc1cccc2c1cc1ccc3cccc4ccc2c1c34,"inconclusive: 56.2 µM [rising, partial curve]"
16,O=C1OC2(c3ccccc31)c1cc(I)c(O)c(I)c1Oc1c2cc(I)c(O)c1I,"active: 49.1 µM and inconclusive: 35.1 µM [cytotoxic, partial curve, poor fit] and inconclusive: 26.5 µM [cytotoxic, partial curve, poor fit]"
17,CCCCCCCCCCCCCCCCCCOS(=O)(=O)O,"inconclusive: 54.9 µM [cytotoxic, partial curve, poor fit]"
18,CCCCC(CC)COP(=O)(O)OCC(CC)CCCC (stereo unspecified),"inconclusive: 55 µM [cytotoxic, single point] and inconclusive: 54.9 µM [cytotoxic, single point]"
19,Nc1nc(=S)c2[nH]cnc2[nH]1,"inconclusive: 42.5 µM [cytotoxic, partial curve] and inconclusive: 30.1 µM [cytotoxic, single point]"
20,CCCCCCCC/C=C\CCCCCCCC(N)=O,"inconclusive: 54.9 µM [cytotoxic, single point]"
21,O=C(Cl)c1cc(C(=O)Cl)cc(C(=O)Cl)c1,"inconclusive: 49 µM [cytotoxic, single point]"
22,Cc1ccc(O)c(O)c1,"inconclusive: 53.4 µM [cytotoxic, single point]"
23,C=C[C@](C)(O)CC[C@@H]1[C@@]2(C)CCCC(C)(C)[C@@H]2CC[C@@]1(C)O,active: 21.9 µM
